Test results: the supplement of paper PMC3334620
In all, about 33,000 sequences were measured (“E-score (-0.5 to 0.5)”: median about -0.013, highest 2% from about 0.3 on). This is one part of the list.

Target: T1, Msn1 (UniProt P22148)
T1 sequence: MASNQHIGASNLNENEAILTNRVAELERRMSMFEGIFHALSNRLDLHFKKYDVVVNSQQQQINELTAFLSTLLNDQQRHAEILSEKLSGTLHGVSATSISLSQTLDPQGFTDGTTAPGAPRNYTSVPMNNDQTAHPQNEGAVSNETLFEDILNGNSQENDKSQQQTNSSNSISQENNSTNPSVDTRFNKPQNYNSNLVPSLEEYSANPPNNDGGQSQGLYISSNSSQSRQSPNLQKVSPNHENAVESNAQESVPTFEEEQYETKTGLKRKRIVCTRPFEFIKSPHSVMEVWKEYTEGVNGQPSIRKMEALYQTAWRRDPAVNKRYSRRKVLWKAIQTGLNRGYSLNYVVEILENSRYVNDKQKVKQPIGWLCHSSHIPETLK
Assay: PBM E-score (8-mer binding enrichment) (E-score (-0.5 to 0.5)); higher = stronger / more preferred TF binding; most listed sequences are background and not binding sites
Details: protein concentration: 200 nM; construct: GST-full length
How it was run: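 Each ungapped eight-base word and its reverse complement, pooled, received an E-score from the Universal PBM Analysis Suite. Underlying scans, normalised with masliner, recorded fluorescent anti-GST bound to GST-tagged yeast transcription factors. These were applied at about 100-200 nM to universal all-10-mer Agilent arrays double-stranded by primer extension.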

Row | Sequence | PBM E-score
1 | CTGGGTGA | -0.0355
2 | ATGCGTTA | -0.0377
3 | AATAGCAA | 0.151
4 | CGTAGTAG | -0.203
5 | ATTTCGAG | 0.234
6 | ATACGGAG | -0.00987
7 | GCTTCTTA | -0.0464
8 | GAATCGCA | -0.169
9 | CGTAGCGC | -0.274
10 | ACCGATAC | 0.0522
11 | ACAAGACA | 0.34
12 | AGGGGCAG | -0.13
13 | ATTGGTAG | 0.0226
14 | ATCCCGAC | 0.154
15 | AAAAGCAA | 0.0931
16 | GGTAAGTA | 0.13
17 | GCCGTAGA | 0.193
18 | TGAAGCAA | -0.00883
19 | CCTGACTA | 0.147
20 | ATAATCTC | 0.019
21 | AGAATTAG | -0.135
22 | ATGCCTAC | -0.129
23 | GTTTGTCA | 0.299
24 | ATCGTTAG | 0.0232
25 | AATCGAGA | 0.0547

Row | Sequence | PBM E-score
26 | CATTTACG | 0.0753
27 | CCGCGCTC | -0.0142
28 | AACCTGCT | -0.0314
29 | GGTCTTTA | 0.00251
30 | ATGCGAAC | -0.0313
31 | AGAGTCGG | -0.128
32 | TCTACGCA | -0.0155
33 | GAACTCGA | -0.104
34 | AGAAAAGA | 0.162
35 | CACCAATG | -0.00217
36 | AACTTGCC | 0.0239
37 | AACCCGTG | -0.246
38 | CGAAGTTC | 0.0811
39 | GCAACCGA | 0.0638
40 | GGATGTGA | 0.0236
41 | TCTAAGCA | 0.0219
42 | AATAGTGG | 0.0374
43 | AAAAATCT | 0.202
44 | GGAATTCC | 0.0467
45 | AACGAGGA | 0.0106
46 | GAACCCGC | -0.25
47 | CGGTCGGC | -0.336
48 | AGAGTTAA | 0.0364
49 | CAAAATCC | 0.153
50 | ATAACCAA | 0.115

Row | Sequence | PBM E-score
51 | AAGTCACG | 0.122
52 | ATAATCCC | -0.0565
53 | AGCCACAA | 0.0571
54 | AATGCACG | -0.131
55 | AGTTTAGC | 0.0785
56 | CAGTTTAC | -0.0477
57 | GACCTCGC | -0.0387
58 | CCGATGGA | -0.043
59 | GAAGACAC | 0.181
60 | CGTTTAAA | 0.215
61 | GTCATAGA | 0.141
62 | CCGTGAAG | -0.198
63 | ATTGGTGG | -0.115
64 | ACGTACAT | 0.307
65 | CTTAATCC | -0.0841
66 | CATCGGTA | 0.115
67 | GGGGTGAA | -0.0529
68 | GCAGTCCC | -0.296
69 | GTTCTTAA | 0.0973
70 | CTTTCTGC | 0.0309
71 | GGTGCACC | -0.242
72 | CAGAATCA | 0.00097
73 | AACTATAG | -0.0296
74 | CTCGACCA | -0.161
75 | GGCTACGA | -0.0567

Row | Sequence | PBM E-score
76 | ACGCAGTC | -0.324
77 | AGGACCCA | -0.221
78 | AATTGGAC | 0.342
79 | CCATGCGC | -0.0469
80 | AATGTACA | 0.294
81 | CCTAGTAA | -0.176
82 | CATCATCC | -0.0785
83 | CCGTCTAC | 0.0392
84 | CTTTCAAA | 0.155
85 | ATTGCTCG | -0.0671
86 | CCGAGGCA | -0.00905
87 | CACGCCTC | -0.132
88 | AAACGGAT | 0.178
89 | GCCGAATA | 0.106
90 | GCACTTAA | 0.135
91 | ACCTGACT | 0.044
92 | AAAAGCGG | 0.0923
93 | CCGCGAAG | -0.11
94 | AATTGTAG | 0.167
95 | CGACGCCA | -0.267
96 | AGTGTCCA | 0.219
97 | ACCTCGAT | 0.15
98 | AAGACAGG | 0.0873
99 | CTTTATGA | 0.0103
100 | GAGAGTCC | -0.215

Row | Sequence | PBM E-score
101 | TCACTAAA | 0.156
102 | CGACTAAA | 0.033
103 | AGCACAGG | -0.0335
104 | ATCACGAA | -0.00412
105 | AAATAAAG | 0.086
106 | GACAGTTA | 0.163
107 | AGATCACG | -0.0191
108 | AGAACTGC | -0.0166
109 | TCCGCGAA | 0.149
110 | ACCTAGAC | -0.00118
111 | CAGGTCCG | -0.00597
112 | CCGGTCCA | -0.199
113 | AGCTTAGG | -0.166
114 | AGGTCCCA | -0.081
115 | CCAGGTGC | -0.205
116 | AGTAGGTC | -0.148
117 | CGGGGGAA | -0.274
118 | AGTAGGAA | -0.0575
119 | CACGTTTA | -0.053
120 | CTCACCTA | -0.062
121 | GTGAACCA | 0.0722
122 | TACTCCTA | -0.251
123 | GGTGTGCA | -0.214
124 | CTAGTTCC | 0.11
125 | CTCCAAAC | -0.0642

Row | Sequence | PBM E-score
126 | CGAAGGTC | 0.00281
127 | ATCGGGGG | -0.223
128 | ATTGGCTC | 0.0719
129 | ACGCCCTC | -0.117
130 | GAATACAA | 0.174
131 | GCGAAAGA | -0.0896
132 | AGCGAAAT | -0.116
133 | CGTTGCGC | -0.0291
134 | GACAAAAA | 0.466
135 | ATTCACTC | -0.0244
136 | AAAACCAA | 0.0961
137 | ACTGTTCT | 0.0566
138 | CCTACGTC | -0.064
139 | ATGAATTA | 0.0142
140 | CATTAACC | 0.11
141 | ATCAGTCG | 0.227
142 | CATTCCCG | 0.0349
143 | ATCTATGG | -0.177
144 | AATGGGTG | -0.0072
145 | ATACTTGG | -0.113
146 | GGGGAGTA | -0.154
147 | AAAGGCCG | -0.00669
148 | GTGTCAAA | 0.096
149 | ACGAGACA | 0.275
150 | ATTTCAAG | 0.145

Row | Sequence | PBM E-score
151 | GGCAGTAC | 0.0828
152 | CCATTGGG | -0.142
153 | GTATACAA | 0.176
154 | GCGCATCC | -0.134
155 | AAGAGAGA | -0.249
156 | GCCGGTAC | 0.0172
157 | ACATGTCC | 0.48
158 | CAGTACAA | 0.262
159 | AAAAGCTT | 0.0152
160 | GTACGGGA | -0.113
161 | AATCTCAC | -0.161
162 | CAGTGATA | 0.0852
163 | CATCCTCA | -0.111
164 | AATTCCAG | 0.032
165 | AATTTAAG | 0.013
166 | GTTCACGA | 0.0786
167 | AAGATTCT | -0.14
168 | GGATGTAC | 0.00429
169 | CAGTTCTA | 0.0716
170 | CTCTACAG | -0.108
171 | ATAGCTAA | -0.195
172 | ATGGCTAA | 0.0228
